This sample is rich in variants without activity.
B1: TPR 5TU (parent)
chain: GGAUCUUCUCGAUCUAACAAAAAAGACAAAUCUGCCACAAAGCUUGAGAGCAUCUUCGGAUGCAGAGGCGGCAGCCUUCGGUGGCGCGAUAGCGCCAACGUUCUCAACUAUGACACGCAAAACGCGUGCUCCGUUGAAUGGAGUUUAUCAUG

Variants of: B1
Assay: polymerase ribozyme fitness, log enrichment relative to wild type (log ratio); higher = more active; in vitro selection for triplet polymerase activity
Summary of the method: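 Fitness is a logarithmic measure of how a genotype enriched relative to the wild type, with replicate averages weighted by inverse variance. The logarithm uses base 2, and enrichment came from Illumina sequencing of input and output libraries. Those libraries were PCR-built, transcribed mutants of each subunit of a heterodimeric triplet polymerase ribozyme, passed through one triplicate in vitro selection round that included frozen incubation at −7 °C, gel excision of extended constructs and streptavidin-bead capture. Genotypes were kept only if they had ≥10 input reads and ≥1 read per output.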

Variant | polymerase ribozyme fitness (log ratio)
A21C A29C G46U G59A A60C A97G A110G G128A | ≤ -4.2
A20U U53A G65C C99U C105G | ≤ -4.2
A20G A21G U61G C95G A106G A137U | ≤ -4.2
A20U A23C A49G C54U C76U G84A A122U U145G | ≤ -4.2
A20C U55A G80U A91U A106C A121C | ≤ -4.2
A20U C35A G62C C85U G88A A97C U144C | ≤ -4.2
A20C A21G U55A U56A A60U A64C G71A G92U U146G | ≤ -4.2
A20G G42A C75G G83U A97U C131A G143A | ≤ -4.2
A21C A23C C35A G58U G59A C85U G100C C105G U111A U135A U148C | ≤ -4.2
A20U U45G G83U C103G C132U G143A | ≤ -4.2
A20C A40G U61A C63A G65A C93A G136C | ≤ -4.2
A20G A26G A37G A49C G92C | ≤ -4.2
A20U U55A | -2.07
A21C A23C A26U A47U G67U U127A | ≤ -4.2
A20U C87U | -2.07
A20C C54U U56A C85G G92A G141A | ≤ -4.2
A20G U77A C85U C105U U135A A138G | ≤ -4.2
A20G A21C A49G U53A C75A C76A G86U | ≤ -4.2
A21C A26G U55G G58C G74U U77A C103G C131A U134A G136A U144A | ≤ -4.2
A20C A28U G62U G74C C79G G86A U111C G117C A150U | ≤ -4.2
A20G U44A C54A C87U A97U | ≤ -4.2
A20C C87G G94C C99A A107U C108G | ≤ -4.2
A21C A24G C36U U53A A66U C76A | ≤ -4.2
A20U G94C C149G | ≤ -4.2

Variant | polymerase ribozyme fitness (log ratio)
A20U A47C G71U A138G U148C | ≤ -4.2
A20G C32G G67U G100U U101G U127G U134G | ≤ -4.2
A20G U44A C69U G86U C95A | ≤ -4.2
A20C A49C G94A A138G A147U | ≤ -4.2
A20G U55G U82C C93A A98U C105U G126C A142C | ≤ -4.2
A19U G136C | -3.86
A20G G46A A47U C75U U90G U109G | ≤ -4.2
A20G C87G A107G C125U | ≤ -4.2
A20U A29C A60G C87G | ≤ -4.2
A20G U44G G74A C85U G136A G140U | ≤ -4.2
A20U U33A A37C A73U G84U U90A | ≤ -4.2
A20C U31C A41C U55A C79A C99A C125G | ≤ -4.2
A20U C54U C75G U82G G92A C131U G136U U144C | ≤ -4.2
A20C G50U G83U | -0.904
A20G U55A A91U C96A C125G A142G | ≤ -4.2
A20G A47G G50C A52U G94A A106C U139G | ≤ -4.2
A20U A150G | -1.81
A19U U55A C63A A142U U148C | ≤ -4.2
A20C A22G A29C C87A C96A | ≤ -4.2
A20G C93G C96U A98U U104G | ≤ -4.2
A20U G46A G140C | ≤ -4.2
A20G C93U | -2.59
A21C A29G A37G G88U A107U G128U A142G C149A | ≤ -4.2
A20G A21C C54U G65A G71U C93A U127G | ≤ -4.2

Variant | polymerase ribozyme fitness (log ratio)
A20C C32G G59C C85U C95G A97G G140A U151C | ≤ -4.2
A20U G46A G84A A142U | ≤ -4.2
A20C U55A C132A A137G G143A U146G | ≤ -4.2
A20U G50C U56A G83U U101G | ≤ -4.2
A20U G67C | ≤ -4.2
A20G G34U G67U C76G C79U C95U A106U | ≤ -4.2
A20G C27A G48C G50A U53C A73U C96A A137U | ≤ -4.2
A20U C27G A28U C96A U139C | ≤ -4.2
A20U G46C U77A U78G C79G G83A | ≤ -4.2
A20U C27G A52C C54U A122U U135C | ≤ -4.2
A20C A52U C99G A106U C129A C132G | ≤ -4.2
A20C G25C G92C C93U | ≤ -4.2
A20U A41U G50A U53G C85U G126A | ≤ -4.2
A20G C35U A52C G59C G68C G81U U82A U109G C125A G141U A150C | ≤ -4.2
A20G U56A | -0.723
A20C A66G G80U G81U G133U | ≤ -4.2
A20U G50A U56A G70A C93U G94C | ≤ -4.2
A20U U33G G42U C63G G71A A113G | ≤ -4.2
A20G C57U C99A C108U | ≤ -4.2
A20U C85U C93G | ≤ -4.2
A19U U33A A40C G86C A113G | ≤ -4.2
A20G C54G U82A A98U U144A | -4.1
A20C U53A C54A A73G C85G C129U U144C | ≤ -4.2
A20G U53G A66U A73G C95A C149U | ≤ -4.2

Variant | polymerase ribozyme fitness (log ratio)
A20C C54U G70C C93A | ≤ -4.2
A20C G25A C54A C63U U135C | ≤ -4.2
A21C A28C C36U A37U U56A C96A A107U G126C G140A | ≤ -4.2
A20U U53G C93A C99G G126A | ≤ -4.2
A19U U56G C57A G88A | ≤ -4.2
A20U G42U U90G C96A G117A A137U | ≤ -4.2
A20G A49C G62A A107G A121G | ≤ -4.2
A19U G94C | -0.449
A20G A30U C87G C103U A107G U109A G133C A150C | ≤ -4.2
A20U C32U A37C C54U C75U C96A U102A A115C | ≤ -4.2
A20U A30U G46A C69U C93U | ≤ -4.2
A20G C35G C57U G58U C87G U109G G140C U148A | ≤ -4.2
A20C G34U A47U A49C U53A U78C G86A G112C | ≤ -4.2
A20U U53G C57A A66C C85U A137G G140A | ≤ -4.2
A20G A29U C32U A49G G83C C87A C93A C95U G124U | ≤ -4.2
A20C G25C A28G C38G C43A G84U | ≤ -4.2
A20C A41U G68C G83A G100U A115G C116U C123G | ≤ -4.2
A20G C79U C85U G124U U144C | ≤ -4.2
A20U A37C C54U C72A C87U C96A | ≤ -4.2
A19U U56A C75G C76U C95U | ≤ -4.2
A21C A29G C95G C96U C125G G133C U139A | ≤ -4.2
A20U A64C G83C G141A | ≤ -4.2
A20U G74U C93U U104G | ≤ -4.2
A20U G48C C75A U82A A89U A91C C118U | ≤ -4.2

Variant | polymerase ribozyme fitness (log ratio)
A20U U55G A91C | ≤ -4.2
A20G A23C G84A G88U G141C | ≤ -4.2
A20G G48C C51G G86A C116U | ≤ -4.2
A20G A21U A23U C87A A91C C95A C118G G133U U135A | ≤ -4.2
A20U C57U C85G C96U | ≤ -4.2
A20C U53A G84A | -1.69
A20U A22U A24U A41C G86A U90G A113G C118G | ≤ -4.2
A20G C27U A30G A60C U82G | ≤ -4.2
A20U C57U G70U G84C A89G U90C A120U U144C | ≤ -4.2
A20U G68C G88A C96A C125U | ≤ -4.2
A20C A39U U53G U82G | ≤ -4.2
A20G C51U G100A | ≤ -4.2
A20C A30U U55G C96G C108A U145C | ≤ -4.2
A19U U56A A60U A91G G94C | ≤ -4.2
A20U A29C C57A C75G | ≤ -4.2
A20G C43U U55A C79A G86A C131U C132U | ≤ -4.2
A20G A21C G94A U146G | -0.812
A20U A26G G86U C93G C103A | ≤ -4.2
A20U G50C G86U G124C G140U | ≤ -4.2
A20U C36U A41U G65U | ≤ -4.2
A19U U53C C87G | ≤ -4.2
A20U A47U C54U A60G U61A A64C C93U C95A U145A | ≤ -4.2
A20C G50C G67C G86U | ≤ -4.2
A20G G83U G124A A150C | ≤ -4.2

Variant | polymerase ribozyme fitness (log ratio)
A20G A29U C35A U55A G126U | ≤ -4.2
A20U A23C A24U C54A C85U | ≤ -4.2
A20U G84A C93G C96G | ≤ -4.2
A21C A28C C87G C103U C114U G141U | ≤ -4.2
A20U A30G U31C G42A A115G C116U | ≤ -4.2
A20C G46U C93U A115U G128U | ≤ -4.2
A20U C76U A91U G92C A115G U146C U151C | ≤ -4.2
A20U A49G G65A G80C G84U G94A U146C | ≤ -4.2
A20U U61A C93A | ≤ -4.2
A21C A26G G42A A89C A91G C93U | ≤ -4.2
A20G C36U A119U A120C C129U A142G | -4.1
A20U G46C A47C C93U A142U | ≤ -4.2
A20C A97G | -0.83
A20U C32G C93A G94C A138C | ≤ -4.2
A20G A22C G25C C57A G92A C99U C108A | ≤ -4.2
A20C A23U A30U C35A G42U G50C G86A U127A G133U A142U | ≤ -4.2
A20G A41C G46C U82C C95A C116U U134A | ≤ -4.2
A20C A52C G71C C85U G140A | ≤ -4.2
A20G G88U C99U A121G | ≤ -4.2
A20C A60C G81A C99A C103G G140C G143U | ≤ -4.2
A20G G62C A91G C123G | ≤ -4.2
A20U G86U A89C G112U A120U U145C | ≤ -4.2
A20C C35G G48A C96U A137U A147G | ≤ -4.2
A20C C43G G83U U139G G143U U146A | ≤ -4.2

Variant | polymerase ribozyme fitness (log ratio)
A20C C36A C51U U55G C69G A73U G81A C96U G141U | ≤ -4.2
A20U C51A A52C G83U A97G G143A | ≤ -4.2
A19U U53A A60G G117U G141U | ≤ -4.2
A20U G42C C76A A91U A98U | ≤ -4.2
A20C A23U A49C C93U C99G | ≤ -4.2
A20G A29C U31C G59C C69U G94A U111C G117U U135A A138U G141C | ≤ -4.2
A20U G59A G81A G88C C95U G136C | ≤ -4.2
A20U A26U A29U G46A A49C A106U | ≤ -4.2
A20C U33C A41C G67C G68C C72U U78G U90G U109A G133A | ≤ -4.2
A21C A24G A52C C54U G92A U104G G124U C129U U134C A138C | ≤ -4.2
A20C C75A C96U C118G G141A | ≤ -4.2
A20U A52U A110G | ≤ -4.2
A20C C87U C96U U102G U130G G143A | ≤ -4.2
A20G U31A A47C A122U G133U U145G | ≤ -4.2
A20G A28U C96A U102G A107C G136A G140U | ≤ -4.2
A20U A49C G92U G141A | ≤ -4.2
A20U C57G G94U C96U A115C C116G | ≤ -4.2
A20U G67U G84U C96U G143U | ≤ -4.2
A20U U127A A150U | ≤ -4.2
A21C A26C C85U A89C G136A G141A | -4.04
A20U A24G C35G U44A C96A C125U G136U | ≤ -4.2
A19U U31G G74U A91U C103A A147C | ≤ -4.2
A20U A28U C35U G50U G126U | ≤ -4.2
